Measured values from PubChem BioAssay AID2546 (National Center for Advancing Translational Sciences (NCATS), 2010).
In all, about 310,000 compounds went through this assay and about 11,000 (3.5%) were called active. This list was built around the results that the source calls inconclusive (neither active nor inactive); the mix of calls is not that of the screen. Calls come from the whole dose curve; as a rule, active = well fitted inhibition curve with a large enough effect; inconclusive = small, poorly fitted or top-dose-only effect, or effect the other way; inactive = flat fitted curve, though single readings scatter. Potencies of inconclusive entries are left out as doubtful fits.

experiment: VP16 counterscreen qHTS for inhibitors of ROR gamma transcriptional activity; settings: Drosophila S2 Gal4-VP16 UAS-luciferase, luminescence, 20 h; activity, negative = inhibition: at 53.6 µM (top of the series);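 note: Gal4-VP16 expression switched on by copper sulfate through the metallothionein promoter; nearly all actives have a fitted effect of over 50% in size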
% is set by controls: 0 for no effect and ±100 for the full control effect; potency is the fitted concentration of half-maximal effect; tags give direction and shape of the fitted curve.

Question: For `COc1cc(/C=N/Nc2nc3ccccc3[nH]2)cc(OC)c1O`, which Potency is on record?
Answer: inconclusive [inhibitor, single point]

Question: Which Potency does the source give for `CCCC(C(=O)NC1CCCC1)N(C(=O)Cn1nnc(-c2ccc(C)o2)n1)c1cccc(O)c1` (centres undefined) here?
Answer: inconclusive [inhibitor, single point]

Question: With `CCNS(=O)(=O)c1ccc(C(=O)Nc2ccccc2)cc1` as the molecule, how does the Potency read?
Answer: inconclusive [inhibitor, single point]

Question: Which Potency does the source give for `C=CCn1c(-c2csc(-c3ccc(OC)c(OC)c3)n2)n[nH]c1=S` here?
Answer: inconclusive [inhibitor, single point]

Question: Which Potency does the source give for `CCc1n[nH]c(=S)n1/N=C/c1cccc2ccccc12` here?
Answer: active: 7.94 µM

Question: For `COc1ccc(C(=O)Nc2ccc(Cl)c(S(=O)(=O)Nc3ccccc3OC)c2)cc1`, which Potency is on record?
Answer: inconclusive [inhibitor, single point]

Question: Which “activity, negative = inhibition” value does the source give for `O=c1c2ccc([N+](=O)[O-])cc2ncn1CCOc1cccc(Br)c1` here?
Answer: inactive: 7.52%

Question: Which Potency does the source give for `COc1cccc(C2Nc3ccc4ccccc4c3C3=C2C(=O)CCC3)c1O` (centres undefined) here?
Answer: inconclusive [inhibitor, single point]

Question: With `CN(C)C(=S)Nc1ccc(Br)c(Cl)c1` as the molecule, how does the “activity, negative = inhibition” value read?
Answer: inactive: 21.4%

Question: For `Cc1ccc(Sc2ncnc3onc(C)c23)c(C)c1`, which Potency is on record?
Answer: inconclusive [inhibitor, single point]

Question: With `Cc1cc(NC(=O)/C=C/c2cccc(Cl)c2)n(-c2nc3ccccc3[nH]2)n1` as the molecule, how does the Potency read?
Answer: inconclusive [inhibitor, single point]

Question: With `CCOC(=O)c1c(NC(=O)COc2ncnc3ccccc23)sc(C(C)=O)c1C` as the molecule, how does the Potency read?
Answer: inconclusive [inhibitor, single point]

Question: For `COc1ccc(-c2nc(N)ncc2-c2ccc(OC)c(OC)c2)c(O)c1`, which “activity, negative = inhibition” value is on record?
Answer: inactive: 0.569%

Question: Which Potency does the source give for `O=C1NC(=S)S/C1=C\c1ccc(SCc2ccco2)o1` here?
Answer: inconclusive [activator, single point]

Question: Which Potency does the source give for `CC(C)(C)n1cnc2cc(NS(=O)(=O)c3ccc(Br)cc3)ccc21` here?
Answer: inconclusive [inhibitor, single point]

Question: For `COCCCn1c(=O)/c(=C\c2ccccc2OC(F)F)s/c1=C(/C#N)C(=O)N1CCOCC1`, which “activity, negative = inhibition” value is on record?
Answer: inactive: 28.6%

Question: Which Potency does the source give for `Cc1nc(Nc2ccccc2)sc1C(=O)c1ccc(F)cc1` here?
Answer: inconclusive [inhibitor, single point]

Question: For `OC(c1cccc(OCc2ccccc2)c1)c1nnc(-c2ccccc2)o1` (centres undefined), which Potency is on record?
Answer: inconclusive [inhibitor, single point]

Question: With `CCN=C(Nc1ccc2c(c1)OCO2)SC1CC(=O)N(c2ccc(OC)cc2)C1=O` (centres undefined) as the molecule, how does the “activity, negative = inhibition” value read?
Answer: inactive: -7%

Question: With `COc1cccc2[nH]c3c(Cl)ncnc3c12` as the molecule, how does the Potency read?
Answer: inconclusive [activator, single point]

Question: With `O=C(NC(=S)NCc1ccccc1)c1ccccc1` as the molecule, how does the Potency read?
Answer: inconclusive [inhibitor, single point]

Question: For `Cc1ccc(/C=N/N2CCCCC2)o1`, which “activity, negative = inhibition” value is on record?
Answer: inactive: 2.77%

Question: For `COc1cc2c(cc1OC)-c1cc(Nc3ccc4c(c3)OCCO4)nc(=O)n1CC2`, which Potency is on record?
Answer: inconclusive [inhibitor, partial curve]

Question: For `COc1cc2[nH]c(=S)n(Cc3ccc(F)cc3)c(=O)c2cc1OC`, which Potency is on record?
Answer: inconclusive [inhibitor, single point]

Question: For `COc1cc(SC)ccc1C(=O)OC(C)C(=O)NC1CCCC1` (centres undefined), which Potency is on record?
Answer: inconclusive [inhibitor, partial curve]

Question: Which Potency does the source give for `O=C(COCC(=O)Nc1cccc(C(F)(F)F)c1)Nc1cccc(C(F)(F)F)c1` here?
Answer: inconclusive [inhibitor, single point]

Question: With `FC(F)(F)c1cccc(NC(=S)Nc2cccc(Cl)c2)c1` as the molecule, how does the Potency read?
Answer: inconclusive [inhibitor, single point]

Question: For `Cc1ccccc1C(=O)N1CCN(c2ncnc3c2cnn3-c2ccccc2)CC1`, which “activity, negative = inhibition” value is on record?
Answer: inactive: 0.56%

Question: With `Cc1onc(-c2ccccc2)c1C(=O)NCCc1ccncc1` as the molecule, how does the “activity, negative = inhibition” value read?
Answer: inactive: 0.0481%

Question: Which “activity, negative = inhibition” value does the source give for `O=C(Nc1nc2c(F)cc(F)cc2s1)C1COc2ccccc2O1` (centres undefined) here?
Answer: inactive: 4.29%

Question: Which “activity, negative = inhibition” value does the source give for `COc1ccc(C(=O)Nc2ccc3c4c(cccc24)CC3)cc1` here?
Answer: inactive: 14.8%

Question: With `CCC1NC(=S)N(C2CCCCC2)C1=O` (centres undefined) as the molecule, how does the Potency read?
Answer: inconclusive [inhibitor, single point]

Question: Which Potency does the source give for `COc1cc(OC)cc(C(=O)NC(=S)Nc2nnn(C)n2)c1` here?
Answer: active: 25.1 µM

Question: For `Cc1nn(-c2ccccc2)c(N2CCCC2)c1/C=N/NC(=O)c1cc(-c2cccnc2)nc2ccccc12`, which Potency is on record?
Answer: inconclusive [inhibitor, single point]

Question: With `Cc1nc(C)c(C(=O)C2=C(O)C(=O)N(CCCN(C)C)C2c2ccco2)s1` (centres undefined) as the molecule, how does the “activity, negative = inhibition” value read?
Answer: inactive: -2.1%

Question: Which Potency does the source give for `COc1cccc(N(C(=O)c2snc(C(N)=O)c2N)C(C(=O)NCC2CCCO2)c2ccc(F)cc2)c1` (centres undefined) here?
Answer: inconclusive [activator, single point]

Question: With `C/C(=N\NC(=O)c1cc(C(C)(C)C)[nH]n1)C12CC3CC(CC(C3)C1)C2` as the molecule, how does the “activity, negative = inhibition” value read?
Answer: inactive: 4.32%

Question: Which Potency does the source give for `Cc1ccc(NC(=S)C2=C(O)c3sccc3N(C)S2(=O)=O)cc1` here?
Answer: active: 15.8 µM

Question: For `CN1CCC(=NNC(=O)COc2ccc(Cl)cc2)CC1`, which “activity, negative = inhibition” value is on record?
Answer: inactive: 1.95%

Question: For `CC(O)CNc1nc2c(c(=O)n(Cc3ccccc3)c(=O)n2C)n1C` (centres undefined), which “activity, negative = inhibition” value is on record?
Answer: inactive: 0.43%

Question: With `Cc1cc(Br)c(OCc2ccc(C(=O)N/N=C3\CC4CC=CC34)cc2)c(Br)c1` (centres undefined) as the molecule, how does the Potency read?
Answer: inconclusive [inhibitor, single point]

Question: With `O=C(COC(=O)/C=C/c1ccc(S(=O)(=O)N2CCCCCC2)cc1)NCc1ccccc1Cl` as the molecule, how does the Potency read?
Answer: inconclusive [inhibitor, single point]

Question: For `CCc1cc(C(=O)N2CCCC(C(=O)c3cccc(OC(C)C)c3)C2)n(C)n1` (centres undefined), which “activity, negative = inhibition” value is on record?
Answer: inactive: -3.41%

Question: Which Potency does the source give for `Cc1ccc(C)c2nc(Cl)c(C3NC(=O)c4ccccc4N3)cc12` (centres undefined) here?
Answer: inconclusive [activator, single point]

Question: For `N#Cc1c(-c2ccco2)cc(-c2ccc(F)cc2)nc1N`, which Potency is on record?
Answer: inconclusive [inhibitor, single point]

Question: Which Potency does the source give for `Cc1ccc(CNC(=O)Nc2ccc(C)cc2)cc1` here?
Answer: inconclusive [inhibitor, partial curve]

Question: With `Cc1cc(C(=O)CCl)c(C)n1-c1ccon1` as the molecule, how does the Potency read?
Answer: inconclusive [inhibitor, single point]

Question: Which Potency does the source give for `Cc1cc(C(=O)CSc2nc3ccccc3[nH]2)c(C)n1Cc1ccco1` here?
Answer: active: 15.8 µM

Question: With `COCCNC(=S)N/N=C(\C)c1ccc(Cl)s1` as the molecule, how does the Potency read?
Answer: active: 3.16 µM

Question: Which Potency does the source give for `Cc1ccc(-c2nc(NC(=O)CSc3ccc4ccccc4n3)ns2)cc1` here?
Answer: inconclusive [inhibitor, single point]

Question: For `CN(C)c1ncc2nc(-c3ccc(F)cc3)c(=O)n(C)c2n1`, which Potency is on record?
Answer: inconclusive [activator, full curve]

Question: With `Cc1nc(N/N=C/c2ccccn2)sc1C` as the molecule, how does the Potency read?
Answer: active: 0.501 µM

Question: With `O=C(O)c1ccc(Nc2nc(-c3ccccc3)cs2)cc1` as the molecule, how does the Potency read?
Answer: inconclusive [inhibitor, partial curve]

Question: With `CC(C)NC(=S)NN=C1CCCCCCCCCCC1` as the molecule, how does the Potency read?
Answer: active: 5.01 µM

Question: Which Potency does the source give for `CCOc1ccc2nc(Cl)c(/C=C/C(=O)c3ccco3)cc2c1` here?
Answer: inconclusive [inhibitor, single point]

Question: With `O=C(N/N=C/c1cc(Br)cc([N+](=O)[O-])c1O)c1ccc(NC(=O)c2ccc(F)cc2)cc1` as the molecule, how does the Potency read?
Answer: active: 11.2 µM

Question: For `CCC(=O)Nc1ccc(NC(=O)c2cc3ccccc3o2)c(OC)c1`, which Potency is on record?
Answer: inconclusive [activator, single point]

Question: For `c1ccc2nc(-c3ccc4c(c3)OCO4)ccc2c1`, which Potency is on record?
Answer: inconclusive [inhibitor, single point]

Question: Which Potency does the source give for `COc1ccc(C(CC(=O)c2ccc(O)cc2)S(=O)(=O)c2ccc(C)cc2)cc1` (centres undefined) here?
Answer: active: 10 µM

Question: For `Cc1cc(C)c(S(=O)(=O)N2CCN(C(=O)N(C)C)CC2)c(C)c1`, which “activity, negative = inhibition” value is on record?
Answer: inactive: -3.58%

Question: For `COc1ccc(Cl)cc1NC(=S)NN1CCOCC1`, which Potency is on record?
Answer: inconclusive [inhibitor, single point]

Question: Which “activity, negative = inhibition” value does the source give for `CC(C)CCCN1C(Nc2ccccc2)=NC[C@@H]1C` here?
Answer: inactive: 3.31%

Question: For `CCCCN1C=CC(=C2N=c3cccc([N+](=O)[O-])c3=N2)C=C1`, which Potency is on record?
Answer: inconclusive [inhibitor, partial curve]

Question: For `C=CCn1c(SCC(=O)Nc2cc(OC)c(NC(=O)c3ccco3)cc2OC)nnc1-c1ccncc1`, which “activity, negative = inhibition” value is on record?
Answer: inactive: 1.94%

Question: For `CC(NC(=S)Nc1ccccc1)C1COc2ccccc2O1` (centres undefined), which Potency is on record?
Answer: active: 5.01 µM

Question: Which Potency does the source give for `N=C1S/C(=C\c2ccc(O)cc2)C(=O)N1c1ccc(F)cc1` here?
Answer: active: 2.82 µM

Question: With `CCCOC(=O)c1ccc(Oc2c(-c3ccc(OC)cc3O)n[nH]c2C)cc1` as the molecule, how does the Potency read?
Answer: inconclusive [inhibitor, single point]

Question: For `Cc1cccc(-n2c(O)c(C=NCc3ccccn3)c3ccccc3c2=O)c1`, which Potency is on record?
Answer: inconclusive [inhibitor, single point]

Question: For `COC(=O)c1sc2nc3c(cc2c1N)C(=O)CC(C)(C)C3`, which “activity, negative = inhibition” value is on record?
Answer: inactive: 6.99%

Question: For `CCOc1cc(/C=N/Nc2ccc(C(=O)O)cc2)ccc1OC(=O)c1ccccc1C`, which Potency is on record?
Answer: inconclusive [inhibitor, partial curve]

Question: With `Cc1ccc(OCc2cc(C(=O)N3CCC(c4ccccc4Cl)C3)no2)cc1C` (centres undefined) as the molecule, how does the Potency read?
Answer: inconclusive [inhibitor, full curve]

Question: With `N#Cc1ccc(Sc2nc3ccccc3[nH]2)cc1C#N` as the molecule, how does the Potency read?
Answer: inconclusive [inhibitor, single point]

Question: For `S=C(NCc1cccs1)Nc1cccc(Cl)c1`, which Potency is on record?
Answer: inconclusive [inhibitor, single point]

Question: With `CC1(C)Cc2ccccc2C(COc2ccccc2)=N1` as the molecule, how does the Potency read?
Answer: inconclusive [inhibitor, single point]
